Laboratory results reported in PubChem BioAssay AID504339 (National Center for Advancing Translational Sciences (NCATS), 2011).
Among all 390,000 compounds or so, about 17,000 (4.4%) were called active. The inconclusive results got no clear call from the source; some entries with a clear call stand among them for comparison. Calls follow the shape of the dose curve; as a rule, active = well fitted inhibition curve with a large enough effect; inconclusive = small, poorly fitted or top-dose-only effect; inactive = no such curve, though single readings can be large or run the other way. Where the call is inconclusive, the potency comes from a doubtful curve fit.

Molecular target: Lysine-specific demethylase 4A (Homo sapiens) (UniProt O75164)
Sequence of UniProt O75164 (O75164 whole entry, looked up, the tested form may be a part): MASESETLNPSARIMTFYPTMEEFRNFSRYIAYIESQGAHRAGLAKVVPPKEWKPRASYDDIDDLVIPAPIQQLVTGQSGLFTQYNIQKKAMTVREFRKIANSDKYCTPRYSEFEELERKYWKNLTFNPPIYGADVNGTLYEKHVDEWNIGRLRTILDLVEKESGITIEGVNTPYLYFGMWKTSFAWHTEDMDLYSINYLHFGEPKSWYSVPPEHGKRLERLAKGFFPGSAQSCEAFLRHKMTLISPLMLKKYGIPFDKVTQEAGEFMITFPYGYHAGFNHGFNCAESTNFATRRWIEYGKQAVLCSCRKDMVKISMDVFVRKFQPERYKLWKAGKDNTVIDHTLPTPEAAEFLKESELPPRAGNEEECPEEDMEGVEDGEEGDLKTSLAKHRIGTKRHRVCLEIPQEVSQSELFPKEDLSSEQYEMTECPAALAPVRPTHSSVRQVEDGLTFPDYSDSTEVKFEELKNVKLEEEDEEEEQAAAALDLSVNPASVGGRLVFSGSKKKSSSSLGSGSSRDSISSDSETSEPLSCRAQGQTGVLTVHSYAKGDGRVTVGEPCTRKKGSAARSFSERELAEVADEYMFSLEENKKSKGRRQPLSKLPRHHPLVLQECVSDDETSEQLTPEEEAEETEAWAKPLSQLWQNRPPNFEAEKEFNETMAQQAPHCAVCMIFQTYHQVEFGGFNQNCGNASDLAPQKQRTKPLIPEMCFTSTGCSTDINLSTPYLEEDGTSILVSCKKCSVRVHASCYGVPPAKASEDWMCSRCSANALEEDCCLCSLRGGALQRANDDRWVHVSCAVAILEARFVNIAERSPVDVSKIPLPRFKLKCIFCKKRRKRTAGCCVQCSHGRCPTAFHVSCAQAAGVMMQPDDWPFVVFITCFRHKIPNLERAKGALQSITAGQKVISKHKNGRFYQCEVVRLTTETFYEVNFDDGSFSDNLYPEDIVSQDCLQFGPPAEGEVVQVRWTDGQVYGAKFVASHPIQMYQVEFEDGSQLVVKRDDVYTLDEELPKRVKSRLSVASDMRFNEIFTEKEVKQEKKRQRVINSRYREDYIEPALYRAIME
Assay: qHTS Assay for Inhibitors of JMJD2A-Tudor Domain; also: nearly all actives have a fitted effect of over 50% in size
Details: AlphaScreen JMJD2A-Tudor / H3K4me3 peptide binding; activity change, negative = inhibition: at 114 µM (top of the series)
% is scaled to controls: 0 for no effect and ±100 for the full control effect; potency is read from the fitted curve at half-maximal effect; tags tell the direction and shape of the fitted curve.

Compound	Potency	activity change, negative = inhibition
CCN(CC)C(=O)[C@H]1CC(CC(=O)NC/C=C(\C)CCC=C(C)C)C(=O)N2CCc3c([nH]c4ccccc34)[C@]12C (stereo partly drawn)	inconclusive: 35.5 µM [inhibitor, partial curve]	–
COc1cc(NC2=Nc3cccc4cccc2c34)cc(OC)c1OC	inconclusive: 39.8 µM [inhibitor, partial curve]	–
CN(C)c1cccc(C(=O)OCC(=O)N(C)c2ccccc2)c1	inconclusive: 79.4 µM [inhibitor, partial curve]	–
COc1ccc(C(=O)NCC(=O)NCC(=O)OCC(=O)C(C)(C)C)cc1	–	inactive: 3.57%
CCCn1c(N2CCN(CC(=O)c3c[nH]c4ccccc34)CC2)nc2c1c(=O)[nH]c(=O)n2C	active: 44.7 µM	–
CN(c1ccccc1)S(=O)(=O)c1ccc(Cl)c(C(=O)Nc2ccc(N3CCOCC3)cc2)c1	inconclusive: 50.1 µM [inhibitor, partial curve]	–
O=C(COC(=O)c1ccccc1C(=O)OCC(=O)NCCc1c[nH]c2ccccc12)NCCc1c[nH]c2ccccc12	inconclusive: 44.7 µM [inhibitor, partial curve]	–
C/C(=N/Nc1ncc(Br)cn1)c1ccc(Br)cc1	inconclusive: 14.1 µM [inhibitor, full curve]	–
COCCCn1c(SCC(=O)Nc2ccccc2)nnc1-c1ccncc1	–	inactive: -24.6%
CC(=O)c1ccc(OCC(O)CN2CCN(CCN3C(=O)c4cccc5cccc(c45)C3=O)CC2)cc1 (stereo not drawn)	inconclusive: 63.1 µM [inhibitor, single point]	–
O=C(O)c1[nH]c2ccccc2c1NS(=O)(=O)Cc1ccccc1	inconclusive: 50.1 µM [inhibitor, partial curve]	–
CC(C)(NO)/C(=N\O)c1ccc(Cl)cc1	active: 39.8 µM	–
Cc1ccoc1C(=O)NCCCNC(=O)c1occc1C	inconclusive: 79.4 µM [inhibitor, partial curve]	–
O=C(N/N=C/c1cccc2cccnc12)[C@H]1C[C@@H]1c1ccccc1	inconclusive: 79.4 µM [inhibitor, single point]	–
O=C(CN1C(=O)c2ccccc2S1(=O)=O)Nc1cc(S(=O)(=O)N2CCCCC2)ccc1Cl	–	inactive: -15.9%
O=C(/C=C/c1cn(CC(O)CN2CCCCCC2)c2ccccc12)c1cccs1 (stereo not drawn)	–	inactive: -32.5%
Cc1cc(C(=O)CSc2nc3ccccc3[nH]2)c(C)n1C	active: 56.2 µM	–
O=C(Nc1nccs1)c1cc(-c2ccccn2)nc2c(Cl)cccc12	inconclusive: 35.5 µM [inhibitor, full curve]	–
COc1ccccc1N1CCN(C(=O)C(=O)c2cn(CC(=O)N3CCCCCC3)c3ccccc23)CC1	inconclusive: 63.1 µM [inhibitor, partial curve]	–
N#Cc1ccccc1Sc1ccccc1C(=O)OCc1nnc(-c2ccccc2)o1	inconclusive: 89.1 µM [inhibitor, partial curve, poor fit]	–
CCSCc1nnc(SCC(=O)c2ccc(OC)cc2)n1C	active: 50.1 µM	–
CCN1C(=NCc2ccc(OC)cc2)N[C@@H](c2ccccc2)[C@H](C(=O)OC)[C@H]1C	inconclusive: 25.1 µM [inhibitor, partial curve, poor fit]	–

Compound	Potency	activity change, negative = inhibition
O=S(=O)(Nc1nc2ccccc2nc1N1CCN(CCO)CC1)c1cc(F)ccc1F	–	inactive: -5.41%
O=c1c2c(nc3cc(-c4ccccc4)[nH]n13)CCS2	–	inactive: -17.7%
CC1(C)SC(=S)N(/N=C/c2ccccc2O)C1N(O)C(=O)Nc1ccccc1 (stereo not drawn)	inconclusive: 50.1 µM [inhibitor, partial curve]	–
COc1ccc(OCCSCc2nnc(NC(=O)Nc3ccc(Cl)cc3)s2)cc1	–	inactive: -3.21%
Cc1cc(-c2ccccc2)n2nc(-c3cccc(Br)c3)cc2n1	–	inactive: 80.6%
Nc1c(C2=NCCO2)nnn1Cc1ccccc1	inconclusive: 14.1 µM [inhibitor, full curve, poor fit]	–
CCCOc1ccc(C(=O)CCC(=O)OCC(=O)Nc2cccc(S(N)(=O)=O)c2)cc1	–	inactive: -6.46%
Cc1cccc(OCC(=O)N(C)CCc2ccccn2)c1	inconclusive: 1.58 µM [inhibitor, full curve, poor fit]	–
C=CCn1c(SCC(O)Cn2c3ccccc3c3ccccc32)nnc1-c1ccco1 (stereo not drawn)	inconclusive: 50.1 µM [inhibitor, partial curve]	–
COc1ccc(OC)c(NC(=S)NCCC(c2ccccc2)c2ccccc2)c1	inconclusive: 50.1 µM [inhibitor, partial curve]	–
CCN(CC)C(=O)c1cc([N+](=O)[O-])cc2c1-c1ccc([N+](=O)[O-])cc1C2=C(C#N)C#N	inconclusive: 50.1 µM [inhibitor, partial curve]	–
Cc1ccc(NC(=O)COC(=O)CCC(=O)c2ccc(C(C)(C)C)cc2)c([N+](=O)[O-])c1	inconclusive: 28.2 µM [inhibitor, partial curve]	–
CCC(c1nnnn1Cc1ccc2c(c1)OCO2)N1CCN(c2ccc(F)cc2)CC1 (stereo not drawn)	inconclusive: 10 µM [inhibitor, full curve]	–
Cc1ccc(NC(=O)c2ncn(CCCN[C@H](C)c3cccc4ccccc34)n2)cc1C	inconclusive: 63.1 µM [inhibitor, partial curve]	–
COc1ccc(Cl)cc1NC(=O)CN(C)C(=O)CCCNC(=O)c1ccc(Cl)cc1	–	inactive: -11.8%
Cc1cc(C(=O)NN=Cc2c(C)[nH]c3ccccc23)c(C)o1	inconclusive: 50.1 µM [inhibitor, partial curve]	–
CC1=CC(c2ccccc2)n2nc(NC(=O)CCC(=O)O)nc2N1 (stereo not drawn)	inconclusive: 35.5 µM [inhibitor, single point]	–
O=C(NCSc1ccncn1)c1ccccc1	active: 20 µM	–
CCOc1ccc(NC(=O)CSc2nnc3c(n2)[nH]c2ccc(S(=O)(=O)N4CCOCC4)cc23)cc1	inconclusive: 89.1 µM [inhibitor, single point]	–
CN(C)CCN(Cc1ccco1)C(=O)c1cc2c(Cl)nc3ccccc3c2s1	inconclusive: 31.6 µM [inhibitor, single point]	–
C#CCOCCOCCOCCNc1nc(N2CCN(C(=O)[C@H]([C@@H](C)CC)n3cc(CCCCN)nn3)CC2)nc(N2CCN(C(=O)[C@H](C)n3cc(CCCN=C(N)N)nn3)CC2)n1	–	inactive: -22.2%
